Structures can show the parent of a compound that is named as a salt. For part of its entries the source gives two or more results. This is not the full list of results. The source may hold further records. Values that stand side by side read as repeated measurements on other runs, samples or individuals.
Format: physicochemical
Conditions: storage, ambient condition (temperature and humidity) or closed cap; sodium salt

SMILES | Stability of the polymorphic form (in words)
Cc1c(-c2ccc(-c3ccccc3F)cc2)nc2ccc(F)cc2c1C(=O)O [Pattern B, brequinar sodium salt] | hydrate KF 4.8% unstable, convert to [table] and unstable [text]
Cc1c(-c2ccc(-c3ccccc3F)cc2)nc2ccc(F)cc2c1C(=O)O [Pattern E, brequinar sodium salt] | KF 8.8%), 2, unstable, convert to [table] and unstable [text]
Cc1c(-c2ccc(-c3ccccc3F)cc2)nc2ccc(F)cc2c1C(=O)O [Pattern F, brequinar sodium salt] | KF 7.2%), 6, unstable, convert to [table] and unstable [text]
Cc1c(-c2ccc(-c3ccccc3F)cc2)nc2ccc(F)cc2c1C(=O)O [Pattern G, brequinar sodium salt] | ^1HNMR, KF 15.3%), unstable, convert [table] and unstable [text]

— patent publication US20210300873A1 (Clear Creek Bio, Inc., priority 2020, published 2021)
